In the supplement of paper PMC12632987:
The full ranking holds about 4,500 sequences; the median of “median log2 fold change of GCK-ALFA target abundance (FLAG IP / Myc IP barcode read proportion)” is about 0.078, and the lowest 2% start at about -0.6. Some of the results follow.

B1: GBRAP_184_5138 (protein)
chain: KTLNASIEAKTVEEAIEQAKKAVEEAKKKNAKLNLFVFADGLSVEEIKELMEEIKKIIEESGLKDANVTLVVTADEEEADKIIEIADELGIRVVVALEEE
B2: GBRAP_128_3591 (protein)
chain: SVEEVRAWTRELLEKMKTADEATRKALADELAERFLTLSREEQEALAETVEELLPELSAEDLDILADAFEAAIPKADPETANLLADIAVAALNEAEEKEE
B3: GBRAP_128_3207 (protein)
chain: VDPETLAELRALADRVAETKTDEAIAAFAAAIAEALKAGKINLDALEEIVRYLGKKLSEEDIVRAMDAFRAALADVGADALAVALGELGEVLMEKEEEKE
B4: GBRAP_74_6510 (protein)
chain: MEELLAALREAAEAGDVDAVVELAREIIAEGSLEAIEEAARILVEFVERHLDELSPEELERLIDVLAELADRLLEEGGRSDVILAVADAMVALEERLAAL
B5: GBRAP_52_5996 (protein)
chain: AEARIRALAEELVAAVLAGDEERVRAILRRIAAELSDEEIVETVRLATRLLARDPRATLEDLARFIDIVEEVLEEEGKSDRLIADVLGAIAEAIAEVEAE
B6: GBRAP_48_5830 (protein)
chain: MKIDLEKLEALVKETVEEMKELYEEAKKEGLSDEDILKMIKAELGDLALELEEEGYTKAADYLLERENRDELAKKLLELFKEGKYEEAYEYLLKKLKEAE
B7: GBRAP_139_3715 (protein)
chain: SHLEELIKKAKELVEKYKDDIEKLAKELAELISEADDEGALAIARAAAEEMKDWSWEKWEEFIEKLSKELKKLGFSEDDVLAIEGVLEAVYAKHELAKLE
B8: GBRAP_52_6327 (protein)
chain: SEAKVEALAKELVAAIKAGDEAKAKALADEAVETLTSEEILKLAELVSKAVSTEDYETKVRAAKVFDYLADLVIEKRGDEDTAAEILGIYARTMYAAEQA
B9: GBRAP_106_2560 (protein)
chain: SKLDELKAFLAETLAEAEAQVPAVVDAIVSRLGEDRAEAEAVARAHAIAYVVNKLKEKMKELGINNPELVKAVEDTLRANRDADLATRIAAAKAVLEAKF
B10: GBRAP_52_6299 (protein)
chain: MREEAKKIAEEMVEAKKAGDEEKLEKLIKELVEKKSKEFIELVAEELAKMAANSNEEEQDIIFEVMEKLADELIEGGYDEAFANDLLAKVAKAAYENELK
B11: GBRAP_160_4316 (protein)
chain: KEEYEKLKEEIDEIFDEAKALIEGQSPEERATIVRVAMGEVLLLVDESEAISDELEEKIAEIADEAEATVAANPDLTEDEVKALIDDARKKILELIEKEA
B12: GBRAP_78_6620 (protein)
chain: ELEELIDKAIEKLNEAAKLAAKIKTEEGQELLGELVDASSYLVEAEEKGGDKKELEEAKKEIEKALKIAKKLGDKELVKKLEEALKLVEEAIKKQEELEK
B13: GBRAP_184_5287 (protein)
chain: MVEHVEIEAETAAEAIAQVEAAAAEARARGAKLRLTLLLRDADVAGVIALFDKLKALRDEGVIESATLGLEREVTEEEADTILAAADAAGVRVVLAIRDE
B14: GBRAP_39_5639 (protein)
chain: SEEEEAEEEYSYLEALGAKLQVEEGISLEELLARQRAYARARFADDPELQALIDELEALAAEGDEMDKLALVGALALAERGESRETIRRHLELLILHLKS
B15: GBRAP_35_5626 (protein)
chain: NTDKEIAEAMVAVLEDTLLAVDEVPAETFLATAIRIAKAAIEVAKELKEDKENAKRILEAARKLLEAALERAEETGAPEETIEELKRLLKEVEELEKKLE
B16: GBRAP_160_4152 (protein)
chain: MEELEKLIKEIKEITEEAIKMMEGETKEEAKVIARVALGEIVLLVESSEAISEETQEKVGKIAREAEEYLKKNPDATVEEIKKKLKEATEKIIEIIKKEK
B17: GBRAP_9_7118 (protein)
chain: YEELIEKLKEVVLDAIEDLHLVIDKLTEEEKEKFKKEVEELKEELLKDKTLTPEEIKEKFLELLKKIYEEVKKIVDEEEAKLAEAIRLTAEEEIDEIVEE
B18: GBRAP_52_5941 (protein)
chain: SSSRLKEIAEELIKLALAGDEEGLRKKAREIAKTYSDEEILAIAKEIAKMAKEAPKEDLDAYFRLMEILTEELEKEGRSEELISEIEGLMAKAMYENELK
B19: GBRAP_160_4492 (protein)
chain: SEKLEKFKEEVKEIVEEAVEAILEEDTSGKLGIARAYAGEIVETALELGVVTEEEADELLKLAEEGMEKIVKAKEKGEEEMKKAAEELKKKLFEFAEKAA

The binders below were run against GABARAP, O95166 (assay: median log2 fold change of GCK-ALFA target abundance (FLAG IP / Myc IP barcode read proportion) (log2 ratio); each designed protein is fused to an ALFA-tag nanobody in HEK293 cells to bring the named protein to FLAG-tagged glucokinase (GCK); Myc marks an untargeted standard; higher = target protein stabilised (more abundant)). Settings: target protein: 3xFLAG-MCP-GCK-ALFA reporter; HEK293 landing pad (RPLP).
Procedure, shortened: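 HEK293 landing-pad cells received a recombined binder library fused to the ALFA nanobody and were induced with 2 μg mL^−1 doxycycline, then transfected with a plasmid encoding a FLAG-tagged target and a Myc-tagged standard. Lysates were collected after 48 h for anti-FLAG and anti-Myc immunoprecipitation, and the circular RNA barcodes were reverse transcribed, amplified and sequenced. Target abundance for each binder is the median log2 ratio of FLAG to Myc barcode read proportions. Barcodes had to reach a proportion of at least 10^−7 in both replicates, each binder needed at least 3 barcodes per replicate, a pseudocount of 10^−6 was applied, and the two replicates were pooled.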

GABARAP, O95166, sequence (O95166 whole entry, the tested form may be a part): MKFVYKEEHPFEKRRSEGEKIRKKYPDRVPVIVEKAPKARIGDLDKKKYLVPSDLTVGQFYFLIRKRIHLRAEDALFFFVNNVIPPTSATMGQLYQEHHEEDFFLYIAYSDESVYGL

Binder | median log2 fold change
B1 | 0.234
B2 | 0.0868
B3 | 0.198
B4 | -0.453
B5 | -0.179
B6 | 0.224
B7 | 0.0358
B8 | 0.00852
B9 | 0.125
B10 | 0.0937
B11 | -0.0788
B12 | 0.289
B13 | 0.0214
B14 | 0.166
B15 | -0.198
B16 | -0.551
B17 | 0.193
B18 | 0.165
B19 | 0.178
